The values below come from ChEMBL document CHEMBL4888484, “Replenishing the malaria drug discovery pipeline: Screening and hit evaluation of the MMV Hit Generation Library 1 (HGL1) against asexual blood stage Plasmodium falciparum ,using a nano luciferase reporter read-out” (2022).

The campaign covered roughly 150,000 compounds. About 540 (0.36%) showed an effect of 50% or more. The list shows a part of the results.

The test has as its system Plasmodium falciparum. Description: Primary screen in NF54 nanoGlo assay, in single point, at 2uM, 72h; a lower Z score goes with more inhibition. The format is functional, Erythrocyte. The note with it: timepoint 72 hour.
Turning to `COc1ccccc1CN(Cc1nc(C(=O)NCCN2CCOCC2)co1)[C@@H](C)c1ccccc1`, the % Inhibition – broadly, the drop in the measured response relative to a control, in per cent – is -8% and the Z score turned out to be 1.15.
For `CN([C@H]1CCCN(S(=O)(=O)C2(C)CC2)CC1)S(=O)(=O)C1(C)CC1`, the “% Inhibition” value is recorded as -17% and the Z score is given as 1.76.
The matching figures for `Cc1ccccc1N1CC[C@@H](C(=O)NCc2cccc(C(F)(F)F)c2)C1=O`: -15% and 1.5.
Take `O=c1ccc(-c2ccccc2)nn1CC#Cc1ccc(F)cc1`: the “% Inhibition” value came to 5% and the Z score is -0.94.
On the same counts, the results for `COc1cc2c(cc1CN1C[C@@H]3NC(=O)CN(C)C(=O)c4ccc(C)c(c4)Oc4cccc(c4)CO[C@H]3C1)OCCCO2` are -4% and 0.81.
The matching figures for `COc1ccccc1NC(=O)N[C@H](C)C(=O)OC(C)C`: -4% and 0.39.
The matching figures for `COc1ccc(-c2nc(-c3ccc4ncn(C(C)C)c4c3)no2)c(OC)c1`: -14% and 1.49.
`CN(CCn1ccnc1)C(=O)C1CC=CC1`: the “% Inhibition” value is recorded as -3% and the Z score is on record as 0.6.
On the same counts, the results for `O=C(C1CC1c1ccco1)N1CCCC(COc2ccccc2)C1` (centres undefined) are -7% and 0.58.
On the same counts, the results for `CCCCCOCC(=O)NC[C@]1(CO)COCCN1` are -7% and 1.36.
On the same counts, the results for `C[C@@H](O)C(=O)N1CCC2(CC1)CC(=O)N(C/C=C/c1ccccc1)C2` are -7% and 0.63.
For `CS(=O)(=O)CC1(CC(=O)NC2CCCCCCC2)CC1`, the “% Inhibition” value is given as -7% and the Z score came to 0.92.
For `COc1ccc2c(c1)[C@H]1OCCC[C@H]1C(c1cc(Cl)c(OC)c(OC)c1)N2` (some centres undefined), the “% Inhibition” value is -7% and the Z score turned out to be 1.06.
The matching figures for `CCOC(=O)[C@H](CN(C)C)Oc1ccc(Cl)cc1`: -13% and 2.58.
On the same counts, the results for `Cc1n[nH]c(CN2CCCC[C@H]2C(=O)Nc2cccc(-c3nnc(C)s3)c2)n1` are -13% and 1.85.
The matching figures for `CN1CCN(Cc2cnc3ncccn23)c2ccccc21`: 13% and -1.8.
Consider `COc1ccccc1CCC(=O)N1CC[C@@H](NC(=O)c2cccnc2)[C@@H](CO)C1`, for which the “% Inhibition” value is -7% and the Z score was 0.8.
On the same counts, the results for `CCn1cnnc1CNS(=O)(=O)C[C@H](Cc1ccccc1)OC` are -2% and 0.29.
Consider `CNc1nc(N[C@@H]2[C@@H]3CCO[C@@H]3[C@H]2NC(C)=O)ncc1F`, for which the “% Inhibition” value is listed as -1% and the Z score came to 0.12.
On the same counts, the results for `CC(C)c1oncc1NC(=O)CN1CCOCC1` are -5% and 0.67.
As to `Cc1cc(NC(=O)Cn2ccnn2)n([C@@H](C)C2CC2)n1`, the “% Inhibition” value was -11% and the Z score worked out at 1.49.
The matching figures for `CN(CC1(O)CCCCCC1)C(=O)NC(CC1CCOC1)c1ccccc1` (centres undefined): -8% and 1.18.
As to `CC(=O)N[C@H]1CCN(S(=O)(=O)c2sccc2Cl)C1`, the “% Inhibition” value was 0% and the Z score is -0.08.
The matching figures for `O=C1C[C@@H](C(=O)Nc2ccc(OC(F)(F)F)cc2)n2c(nnc2-c2ccco2)N1`: -9% and 1.72.
On the same counts, the results for `Cc1cc(CC(=O)N2CCC(c3ncncc3C)CC2)on1` are -21% and 4.14.
On the same counts, the results for `O=C(NC1CCCCCCC1)c1ccc2ccccc2n1` are -2% and 0.26.
For the compound `C[C@H]1CCCN(CC2=NS(=O)(=O)c3ccccc3N2)C1`, the “% Inhibition” value is given as 1% and the Z score is listed as -0.21.
The matching figures for `O=C(c1cc(O)ncn1)N1CC[C@H](c2nccc(C(F)(F)F)n2)C1`: -12% and 1.31.
The matching figures for `Cc1nc(C)n(C2CN(C(=O)COc3ccc(Cl)cc3C)C2)n1`: 2% and -0.33.
On the same counts, the results for `CC(C)c1cncnc1N[C@H]1CN(CCCO)C[C@@H]1C1CC1` are 4% and -0.64.
For `COCc1noc(CN(C)Cc2c[nH]nc2C)n1`, the “% Inhibition” value is given as -7% and the Z score came out at 1.21.
The matching figures for `CCN(CC)S(=O)(=O)c1ccc(N2CCOCC2)c(NC(=O)c2ccc(O)nc2)c1`: -7% and 1.2.
On the same counts, the results for `COCCNc1ccc(-c2nc(-c3ccc(C)cc3)no2)nn1` are -9% and 1.02.
The matching figures for `Cc1ccccc1NS(=O)(=O)c1ccc(-c2ccc(O)nn2)o1`: 8% and -1.06.
In the case of `O=C(CN1C(=O)COc2ccc(Cl)cc21)N1CCN(c2ccc(F)cc2)CC1`, the “% Inhibition” value is -3% and the Z score was found to be 0.5.
On the same counts, the results for `COc1ccc(NC(=O)Cc2coc3cc(C)c(C(C)C)cc23)cc1S(=O)(=O)N1CCCCC1` are -11% and 1.34.
On the same counts, the results for `CCN1CCN(C(=O)c2ccc(C)n2C(F)F)[C@@H](C)C1=O` are -7% and 1.34.
Turning to `CCc1cnc(-c2cnn(CC(=O)Nc3c(CC)c(CC)nn3C)c2)nc1`, the “% Inhibition” value is reported as -5% and the Z score stood at 0.81.
The matching figures for `COC[C@H]1CCN(c2nc(-c3ccccn3)nc3c2CCNCC3)C1`: -2% and 0.41.
On the same counts, the results for `C[C@H]1CCc2c(cc(-c3ccccc3)n2-c2ccc(C(=O)NCc3cccc(Cl)c3)cc2)C1` are -13% and 2.54.
For the compound `O=C(CN1CCc2nc(NC(=O)c3ccccn3)sc2C1)Nc1ccc(F)cc1F`, the “% Inhibition” value is reported as -1% and the Z score came out at 0.21.
The matching figures for `CCc1cnc(NC(=O)NC[C@H]2CN(C)C[C@@H]2c2ccccc2)s1`: -11% and 1.47.
